Values marked as one replicate rest on one cluster of the flow cell; about a third of the high ones do not repeat.
Tested on: ATP
Assay: switch fluorescence ratio, 500 uM ATP over buffer (Cy3 cluster intensity, sum of 5 cycles each) (fold (ratio)); higher = stronger signal-on switching upon ATP binding; sequences stand for … in TCGTCGGCAGCGTCAGATGTGTATAAGAGACAGTTTTTTTTTTTTTTTTTTTTTTTTT…TC
Conditions: aptamer strand: ATP DNA aptamer (quencher-CACCTGGGGGAGTATTGCGGAGGAAGG + anchor), 100 nM annealed; ATP concentration: 500 uM; one replicate
Procedure, shortened: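 After annealing to 100 nM quencher-labelled ATP aptamer, Cy3-labelled switching-strand clusters on a modified Illumina MiSeq flow-cell were imaged in selection buffer. A second image followed after 15 min with 500 uM ATP at 22 °C, and five such buffer/ATP cycles were done, each separated by NaOH stripping and re-annealing. The fluorescence ratio, averaged per switch-domain sequence, is summed target-cycle over summed buffer-cycle Cy3 intensity per cluster, with clusters outside 100-1000 RFU excluded.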
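Note: ATP exposure 15 min at 22 °C before imaging.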

Sequence | switch fluorescence ratio
GATCGATCG | 0.996
GAATGAGGGA | 1.01
CCACCACTGG | 1.08
AGTAATGTCC | 1.02
AAATGCCACT | 0.925
AGTCTTAAAT | 1.01
ACATTACGGT | 1.44
AAAGTATAAT | 1.03
AGCGTCCCCA | 1.03
ACAGCGGCAC | 1.23
GTGGGTCAAG | 0.973
GTTGCTATTC | 1.03
GCCAATTAA | 0.997
CCTATTTATG | 0.963
CCTATGAGGG | 1.45
ACACTTCGAC | 1.1
GCTTGAGAAT | 1.01
GGAGCGCGTA | 1.02
CCTTATCTAT | 1.01
TGCTCCCCTT | 1.61
CGTTTGATAG | 0.99
GGCCCAGTGC | 1.47
CGGGCCGGG | 1.12
TTCGGCACCG | 0.976
AAAGGGTCGG | 1.02
TTTGCCAGGG | 1.06

Sequence | switch fluorescence ratio
GAATCGATCT | 0.976
CAGAACCCTG | 1.03
TATGCTGGGA | 1.02
GGGGTATGCA | 0.95
TCGGTGCGTT | 0.989
TGTTATTCTC | 0.976
AGATCGATTA | 1.01
TCTGAATGAG | 0.97
TTTGCCACAG | 0.997
CTTTACCGGC | 0.979
GCGCAGAGGA | 0.998
GCCGTATGTT | 1.01
AGAAATATCC | 1.07
AAACACAATT | 1.02
GGACCAAGTT | 1.04
CAGGCTGTGC | 0.999
CCTAAGTATG | 1.01
GCAAAGTTGA | 1.08
TTACCTCCAC | 1.48
TCTCCATGGT | 0.98
TCATAGTAAA | 1.01
CAAGGTCCTG | 0.979
ATACGGAATC | 2.4
AGAACTTGGG | 0.991
TTACCAGGTA | 1.07
AATGCTCGTG | 1.08

Sequence | switch fluorescence ratio
CACTTGTGGC | 0.985
AGGAGGTATA | 1
AACATTTGTC | 0.971
TTGGTGACAG | 0.956
AGTGGCGGAA | 0.998
CGGGGTATAC | 1.16
CAAATTAGCC | 0.976
AGGGTGTGAG | 1.01
TGATGATACA | 0.999
AAGCTTTTCG | 1
CATATATTTG | 1.05
AGGCCGGAGT | 1.02
CGGGTTCCCA | 0.954
AGTCGGCGGT | 0.915
GTAGAAAGCT | 1.21
TACAAGGAAA | 1.03
TTGCGAGAAA | 1.01
ACGGGGATTA | 1.02
AATCTGGTTC | 1.04
TTTTCAGTCG | 1
ACCCTCTGCT | 1.27
AGGGGATATA | 0.983
TCATACAGCA | 1.09
AACATGATGT | 0.964
GGTCGTGCCC | 0.977
CTAAGAACAG | 0.997

Sequence | switch fluorescence ratio
AATAGAGGGC | 0.978
AACAAAAATT | 1.17
AGAGTCAGGG | 0.989
TGCCACGGCG | 0.958
GAAGTCAATT | 1.11
GCCGATACTC | 2.21
ACAGGGCGAT | 0.932
CCCGTAAAGA | 1.07
GATTAGTAGT | 0.996
TTTGCACGCA | 1.04
TAGCCGTTAC | 1.16
ATAATAACGG | 1.04
CCGTGCTCAG | 1.13
GGATTAGTTC | 0.956
TTCTACGGCG | 0.994
TAGGGGCTGC | 0.952
TTTGACAGCT | 0.988
TAGTGAGAGT | 0.999
TGAGCACAA | 1.13
TATTAAAAGT | 0.991
TCTCTGCTTG | 1.02
TGCATGGTAA | 0.987
TCGCCGACAC | 1.58
AGTTGGAAAT | 0.99
CGATTGGTGG | 1.02
CAAAGACGGA | 0.967

Sequence | switch fluorescence ratio
AGGCTATGTG | 1.02
GGCTAAAGG | 0.967
CATTTGATGT | 0.964
GATCGAA | 0.995
GCGATGAGAT | 1.02
TATTGCAAG | 0.975
CCCGTCCAGT | 1.06
AATATCAAGT | 0.989
TGGACATGCA | 1.02
CCGCTATGCG | 1.65
CAATTTGCGC | 1.03
AAGCCCTAAG | 0.997
ATTTGGAGCC | 1
GTGGAGTTAC | 1.07
TACTGCACCT | 1.15
GTCTTTCTTA | 1.03
AAGGTGCTCC | 1.01
ATTCAATTA | 0.963
ATGGCTTCTT | 1.02
GGGCTAAA | 2.94
CAAGAAGAA | 0.97
TAAGTGGGCA | 1.02
AAGCAGAGAA | 1.01
ACGTGCACTA | 1.06
TTTCTACCGG | 0.995
AAGATTACTG | 1.01

Sequence | switch fluorescence ratio
TTTAGCCGC | 1.03
AGGGTTTGTC | 0.982
GAGTAGGCTC | 0.963
CAAAACCATG | 0.996
AAGAAATCTT | 0.957
CCGGGATTT | 1.01
GGTCCTGCGA | 1.39
TTTGTACGTT | 1.04
ATATTGAAGA | 0.989
GTTGCGTTAT | 1.02
TCGCTGTTAC | 4.24
AAAGGGGCA | 1.04
CTCAGGTAGA | 1
TGTTAGCTAA | 0.985
ATCTTTTACC | 1.06
TTATTCAGT | 1.01
CTTTTGGCTA | 1.26
CAGGACTCCT | 1.09
GTACAAGCGG | 1.04
TGTGTGCGTC | 0.964
ATACATGGT | 0.951
TTACCATAAG | 1.05
ACCACGGAGT | 1.02
AAAATCGTAA | 1
GCATTTTATC | 1.02
CTATCCGCA | 1.83

Sequence | switch fluorescence ratio
CATTACTCTC | 1.07
AAAATAAAGT | 0.988
GTAGAGGCCT | 0.974
CTTTAACCAG | 1
CATTCTATAG | 0.986
TACCTGTACT | 1.24
TTGACAGCGG | 1.12
TTTCAGTGGC | 1
CCGCGGGCGT | 1.23
TTGATTTGGA | 1.07
GGACGAACGA | 1.22
GCTTAAAACA | 0.971
GCGCGTGAA | 1.04
GAATGGGCAG | 0.997
ACTAATATGG | 1.12
GCTCCCTAAG | 1.49
GCCTTTTGAA | 0.956
CCCTTAAGGG | 1.01
TTCTCGGTCC | 1.01
CTTAGTGGT | 1.01
ACGTTTGTAC | 1.21
AGGACCGCTG | 1.03
TAGGACGAGA | 1.01
TGCCATCATT | 0.949
GGTGTAGCAA | 1.64
AGAGGGTGTA | 1.02

Sequence | switch fluorescence ratio
CGCTTATT | 1.04
GTAAGACACA | 1.08
GTGGCTGGTA | 1.01
CAGGGCACAT | 1.08
CTTAGTTTCA | 0.977
CTGTTGCCAG | 0.992
TGTGTCTAGA | 1.03
GATCAAGCAG | 1.01
TTCACGT | 1.05
CGTGTACGGC | 1.03
TAGCCGTTG | 1
TTCGGGCCTT | 1.02
AGAAGTTCTT | 1.01
CAATACGGTG | 1.4
GCTGTACGT | 1.07
TTTGCAGTTG | 0.95
GGCGTGATCG | 1.02
TAGACGAGGC | 0.989
CACGGGCGGT | 1.02

Source: the supplement of paper PMC10126150
